The other results are listed elsewhere or left out.
T1: UNK ZnF1-6 (called full-length) (human, UniProt Q9C0B0 30-357)
T1 sequence: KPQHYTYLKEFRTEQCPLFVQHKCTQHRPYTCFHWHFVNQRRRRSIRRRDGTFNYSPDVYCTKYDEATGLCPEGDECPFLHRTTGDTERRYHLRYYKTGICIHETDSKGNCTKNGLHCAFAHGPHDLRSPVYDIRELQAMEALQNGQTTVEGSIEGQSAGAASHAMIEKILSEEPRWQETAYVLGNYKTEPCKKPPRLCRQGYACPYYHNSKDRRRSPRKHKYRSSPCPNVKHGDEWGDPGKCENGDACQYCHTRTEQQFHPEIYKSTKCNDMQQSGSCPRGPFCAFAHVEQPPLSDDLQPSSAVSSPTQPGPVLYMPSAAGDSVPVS

B1: chr1:152579660:152579936:-|CDS|ENSG00000163202|control|control|control (ssRNA)
RNA: GGGAGUUCUACAGUCCGACGAUCGUACAGUGUCUGCCUCCAGCUUCCUCUGGCUGUGCCCCAAGCUCUGGGGGCUGUGGCCCUAGCUCCGAGGGCGGCUGCUUCCUGAACCACCACAGGCGCCACCACCGAUGCCGGCGCCAGCAACAGAGGAUUGAGCAUCA
B2: chr17:35724233:35724342:+|3pUTR|ENSG00000006125|msi1_unk|FALSE|overlapping (ssRNA)
RNA: GGGAGUUCUACAGUCCGACGAUCUCCUGGAGGCAGAGAUGCAGUUACCUACCCUAGCUUUUGAUGGGUUCUCUUACCUGUAGUAGCCUUAUCCCUGGUCAUUUGGAUUUUCAGUUUGCUUUUUUCUUUUUUUCCCCUCCAAACCAACAGAGGAUUGAGCAUCA
B3: chr19:10391132:10391550:-|three_prime_utr|ENSG00000105401|control|control|control (ssRNA)
RNA: GGGAGUUCUACAGUCCGACGAUCCCCCAGCUACCACCGCCACCUGCUUCCAGGCCCCUAUGUGCCCCUUUUCAGAAAACAGAUAGAUGCCAUCUCGCCCGCUCCUGACUUCCUCUACUUGCGCUGCUCGGCCCAGCCUGGGGGCAACAGAGGAUUGAGCAUCA
B4: chr16:2457226:2457327:+|3pUTR|ENSG00000162063|unk|total|mutant (ssRNA)
RNA: GGGAGUUCUACAGUCCGACGAUCCAAGCCAUCAGAAUGUUGAAAUGAGGGUGAAGAGCUCAGAUCCCUCUCUUUGGAAAGUUCCGCCUGGAAGCAGUUGGCCACACUGUGUGGAGGGCACCUCUCUGUCCCUUCCGUGUCUCACAACAGAGGAUUGAGCAUCA
B5: chr1:212686416:212686790:-|three_prime_utr|ENSG00000123685|control|control|control (ssRNA)
RNA: GGGAGUUCUACAGUCCGACGAUCUUGUGCAGAUCCAGCAUGGAGGCCACCCUCAGGAGUGACUUCUCAUCCACCCUGGCAGCUAGUAGGUUCUGCUGUUAUGCAGAGCCAUUUCCUCUAGAAUUUGGAUAAUAAAGAUGCUUACAACAGAGGAUUGAGCAUCA
B6: chr11:75587191:75587292:-|CDS|ENSG00000171533|unk|FALSE|unique (ssRNA)
RNA: GGGAGUUCUACAGUCCGACGAUCACAGCCUCCAAAGAAUCAAGGUCGUAUAGUCCCUGAACCUCUGAAGAAUCAAGUUCCUAUAGUCCCAGUGCCUCUGAAGGAUCAAGAUCCUCUGGUGCCAGUACCAGCAAAGGACCAAGGCAACAGAGGAUUGAGCAUCA
B7: chr17:76725537:76725647:-|CDS|ENSG00000070495|unk|total|mutant (ssRNA)
RNA: GGGAGUUCUACAGUCCGACGAUCUACUCAGUGAAGAUGAAGAUGAAAUACUACAUCGAGUACAUGGAGAGCACUCGAGAUGACCGUCCCCUUUACAUCUUUGACAGCAGCUAUGGUGAACACCCUAAAAGAAGGAAACUUUUGCAACAGAGGAUUGAGCAUCA
B8: ENSG00000070961:be:win_151|CDS|ENSG00000070961|bound_else_gene|NA|bound_elsewhere_windowed (ssRNA)
RNA: GGGAGUUCUACAGUCCGACGAUCGAAAGCUAUGGAGAUGUCUAUGGAAUUUGCACCAAAUUGAAAACAUCUCCCAAUGAAGGUUUAAGUGGAAACCCUGCAGAUUUAGAAAGAAGAGAAGCAGUGUUUGGAAAGAAUUUUAUACAACAGAGGAUUGAGCAUCA
B9: chr12:67313014:67313056:+|3pUTR|ENSG00000111530|msi1_unk|total|mutant (ssRNA)
RNA: GGGAGUUCUACAGUCCGACGAUCUUUUUGCCGCAUUUAUUUCAGAAAUGUGUAUUUCCAUAAUCCAGAGGUUGUAAAACCACCCGUGUUUCCGUGGUUACAGCAACAUUUGAAAUGGAAACUAAAAGUCCGGAUUUUAUGGAGCAACAGAGGAUUGAGCAUCA
B10: chr1:112912765:112912828:-|3pUTR|ENSG00000155380|msi1_unk|FALSE|overlapping (ssRNA)
RNA: GGGAGUUCUACAGUCCGACGAUCUUAAGGUUUGCAAAUUAAAAAGGGCCAGAAAAAUUUGGCACCAGGCAAACGAAUAAAGAUAGGAUUGGGAAAGAAGUUGCUAAGUGUGCUUAGUUUUAAUAAGUAAUUCCUUCUCUUUUUCAACAGAGGAUUGAGCAUCA
B11: chrX:101412715:101412817:+|CDS|ENSG00000126945|unk|total|mutant (ssRNA)
RNA: GGGAGUUCUACAGUCCGACGAUCGGGUAUGGAGGCUAUGAUGACUAUGGUGGCUAUAAUGAUGGAUAUGGCUUUGGGUCUGACCGAUUUGGAAGAGACCUCAAUUACUGUUUUUCAGGAAUGUCUGAUCACCGAUACGGAGAUCAACAGAGGAUUGAGCAUCA
B12: chrX:130625084:130625185:-|3pUTR|ENSG00000165675|msi1|total|mutant (ssRNA)
RNA: GGGAGUUCUACAGUCCGACGAUCAGUUCCUUUGAAUUUGUCAGUUCAUUCCUGGAAAAUCUUUUGAGUUAAAAUAAGGAUCCCCGGACAGCACCUCGAACUACAGGCCCUAAAGAGAAAUUGCCUCAAACCACAAGUGCUGUACAACAGAGGAUUGAGCAUCA
B13: chr8:80500255:80500365:+|CDS|ENSG00000205189|unk|total|mutant (ssRNA)
RNA: GGGAGUUCUACAGUCCGACGAUCGAAAAACCAAACUACAAAAAGAUUUAUUUAUAAUAUUCCACCUAAUAAUGAAACGAAUUCCGAAGAUUGCUCAGUAAUGCAGCCACCUGUUGCCUAUCCAGAAGAAAAUACACUACUCAUCAACAGAGGAUUGAGCAUCA
B14: chrX:40073105:40073212:-|CDS|ENSG00000183337|unk|FALSE|unique (ssRNA)
RNA: GGGAGUUCUACAGUCCGACGAUCCUACCAAGAUGCCCUGGGGUUGGGCAUGGUGCAUCCCAUGUUGAUACCACACACGCCCAUAGAGAUUACUAAAGAGGAGAAACCAGAGAGGAGAUCCCGGUCCCAUGAGAGAGCCCGUUACAACAGAGGAUUGAGCAUCA

molecular target: T1, UNK ZnF1-6 (called full-length); experiment: nsRBNS (natural sequence RNA bind-n-seq); RBNS binding buffer (assumed for nsRBNS): 25 mM Tris pH 7.5, 150 mM KCl, 3 mM MgCl2, 0.01% Triton X-100, 500 ug/ml BSA, 20 U/ml SUPERase-In, 4 C; UNK is unkempt and MSI1 is Musashi-1; names of the RNAs are library labels; protein concentration not given here; high values mean tight binding

Binder | binding signal [enrichment R]
B1 | 0.89
B2 | 1.69
B3 | 1.18
B4 | 0.494
B5 | 0.63
B6 | 0.536
B7 | 0.508
B8 | 0.536
B9 | 0.291
B10 | 0.903
B11 | 0.671
B12 | 0.496
B13 | 1.54
B14 | 1.19

Reference: PMC12136788
